From the RNAGym collection of RNA variant scans (doi:10.7554/elife.90254)
The source gives no read counts; variants with many changes may rest on few reads.

B1: OR4K15 (parent)
chain: GUUAACGGUCAUAGGCCAUGGAAACUAGGAGCACCAUUUCGCUGCCAGUGAAGAAAUGAACAAAGAAAAUCUGGGCCAGGCAGGCAUCAAAAGAAAUAGUCUUGCGCUCAACCAGAAAGUCUGUAAUCAUUUUAAGGGUA

Variants of: B1
Assay: self-cleavage, relative activity (ratio to wild type); higher = more cleavage; in vitro, sequencing; the parent is a self-cleaving ribozyme

Row | Variant | self-cleavage
1 | U9C A59C A140G | 1.64
2 | U9A U37C U100C A114G U122C | 0.32
3 | U9A A33G U37C A52G U87C | 0.7
4 | U9C U38C A51G | 1.98
5 | G8A A59C A67U | 2.33
6 | U9C U102A U108C | 0.02
7 | U9C A18G A94G | 1.88
8 | G7U U57C A62G A64G A90G | 0.76
9 | U9C U49C A54U A86U A135G U139C | 1.72
10 | U9C C77A A92G | 0.83
11 | U9C A24G A33G C77A | 0.54
12 | U9C U26C A59G A117G | 1.66
13 | U9C A27G A51G A68G G83U A95G U132C | 0.37
14 | U9C A54U A78U | 0.38
15 | U9C C32U G84U | 0.75
16 | G8A U12C U57C A125G U127C | 0.16
17 | U9A A18U A55U A78U | 0.3
18 | U9G A11G A18U A24G A36C U57C A59G A111G | 0.07
19 | U9C U39C A82U A116G | 0.09
20 | U9C A66G U72A U139C | 0.31
21 | G8A A47G C61U A62G G75C A117G | 0.21

Row | Variant | self-cleavage
22 | U9C A60G A116G G138A | 1.01
23 | U9C A13G A22U A59U U72A A95G | 0
24 | G8A A89G A98G A129G | 0.18
25 | U9C U39C A55G | 1.53
26 | U9C A51U A95G U103C | 1.32
27 | U9C A86G A118U | 0.82
28 | U9C U38A U87C U108C C113U | 0.02
29 | U9C A56G U70G A90G U103C | 0.44
30 | U9C A54U G104A | 0.05
31 | U9C A82U A129G | 0.22
32 | U9C U19A A110G U120C | 0.1
33 | U9C U43A U87C A118G | 1.9
34 | U9C A54G A63G | 2.01
35 | U9A A69U U130C | 0.89
36 | U9C A33U G106A | 0.01
37 | G8A A23G A63G | 0.53
38 | G8C U9C U39C | 1.62
39 | U9C U37C A126G | 1.84
40 | U9A C40U U130C | 0.54
41 | U9C A69G U103C | 1.2
42 | U9C A91G A126G | 0.86

Row | Variant | self-cleavage
43 | U9C A23G G73U | 0.23
44 | U9C A22G U70C U124C U132C | 0.25
45 | U9C A11G U72C | 0.34
46 | G8A A66G U70C A78G | 0.25
47 | U9C A36G A55G | 1.17
48 | U9C A22G A30G U130C | 1.21
49 | U9C A11U A51G A52G A95G U127A | 2.26
50 | U9C U39A A86U U108C U130C U131C | 0.01
51 | U9C U49C U103C | 1.39
52 | U9C U87C A116G | 0.55
53 | U9C A56G A91G | 1.09
54 | U9C A18U A68U | 1.31
55 | G8A A82G C105U A114G | 0.11
56 | U9C U38C A95G U102C U120C U130A | 1.65
57 | U9C A23G C112G A117G | 0.02
58 | U9C A11U A23U A94U | 1.84
59 | U9C A98U A114G | 1.77
60 | G7U U19C A56G U122C U131A | 0.73
61 | U9C A62C A63G A64G U72C | 0.42
62 | U9C A59G U72C | 0.26
63 | U9C A68G A92G U100A G106A U122C | 0.01

Row | Variant | self-cleavage
64 | U9C U39C U97A U133C | 2.2
65 | U9C A92G A118G | 0.44
66 | U9C A33U A117G | 2.93
67 | U9C G21A U108C | 0.04
68 | U9A U19C A23G | 0.87
69 | U9C U100A U108C | 0.02
70 | U9A A27C A55G A69U A94G A125G | 0.61
71 | U9C A24G G73A | 0.23
72 | U9C A22G C81U | 0.53
73 | U9C A51G G106A A117U U139A | 0.01
74 | U9C A59G U130C | 1.18
75 | U9C U37C C61U A67G U102C | 1.4
76 | U9C A24G U57C A78C A118G | 0.09
77 | U9A A23G A47G C85U A125G | 0.13
78 | U9C A24G A60G A69G A86G U120C G137A | 0.64
79 | U9C C101U U132C | 0.46
80 | U9C A23G A55G | 0.38
81 | U9A A33G A96G | 0.75
82 | U9C U19C A56G A94G | 0.8
83 | U9A C45G A59U A111G | 0.01
84 | U9C U87C A117G U122C | 2.25
